Results taken from the RNAGym collection of RNA variant scans (doi:10.1101/gad.245936.114).
Variants at the floor of the assay are shown more often than the library holds them.

B1: tRNA (parent)
chain: CUCUCGGUAGCCAAGUUGGUUUAAGGCGCAAGACUUUAAUUUAUCACUACGAAAUCUUGAGAUCGGGCGUUCGACUCGCCCCCGGGAGAUUUUUUCCUCGAGCAA

Variants of: B1
Assay: nonsense suppression (GFP-seq) (ratio to wild type); higher = more function; SUP4oc tRNA, yeast GFP reporter sort-seq
In short: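 Yeast carrying genome-integrated SUP4oc tRNA variants from a library with ~3% random mutations were grown in raffinose/galactose medium with 80 mg/L adenine. Each strain also carried a galactose-driven GFP ochre reporter and RFP. Cells were sorted into GFP/RFP bins, and each bin was Illumina-sequenced (phred ≥30). Nonsense suppression (GFPSEQ) is the bin median GFP/RFP, weighted by each variant's estimated cell share per bin, relative to wild-type SUP4oc; variants needed ≥100 reads and ≥30 cells.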

Nonsense suppression, 0.0603:
A9U G28C G85A

Nonsense suppression, 0.0292:
A9U G10A

Nonsense suppression, 0.0389:
A9U C77U

Nonsense suppression, 0.106:
A9U A74U

Nonsense suppression, 0.202:
A9U U16G

Nonsense suppression, ≤ 0.026:
A9U G59A
G10A A14C A89C
G10C G86U
G10U A13C U22A
G10A G65U
G10U U71C A74G
G10U C11U C27G U55G A74G
G10A U71A G88U
A9U G73U
G10U A31C U58A
A9U U35G G73A A74U
G10C A33G
G10U A31U
G10U G61C G66A
G10U C27U
G10U A33G A54C
G10U C34G U55G
A9U G28U A62G U71G
G10U U17A G19U A23C
G10U A14G A54G G73C C75A
G10A A33G U58A C68A G86U G88A
G10C C29U A31U U71G A87G
G10U A14C G15U G19U
G10C G18C G67A
A9U U20G C80G
G10A C11A A30U C56G
G10U U21A U76A
G10A G32C
G10A C12U
G10C U20G C34A C72A C83U
G10C G15C G32U U63A A89C
G10C G19A
G10U G26A
G10U G26U
G10A U63G C77U G84C
G10C G28A
G10U U55G G67A
A9U C12A A13C C72U C79A
G10U U55A G59A G86C
G10A A13C C80G
G10A U22C
G10A G28C G61C
G10A U16G G61A
A9U C29G
A9U U21C G88U
G10C U35C U71G G78A
G10A A24C G85U
G10U C34G G65C U76G
A9U C12G A60U C79A
G10C G61A C82G
G10A A30G C64A
A9U C64A G66C
G10C U17C G78A A87C
G10C G26C U57G A62G
G10U A30C C56A U70G U76A
G10A U58G
A9U G32A G65U G84A
G10C G32U A54U U55A C68G G69C G86U
G10U C11U G15A C68G U71C
G10C C34G C56G G59A U71C
G10A G78C
A9U C29G G66U A74G
G10U C34A U58G U71G C77A
G10A G28A
A9U U57C
G10C C79U
G10A C34G C80G G88C
G10U A13G G15U C34G A62C A89C
G10U A24U
G10C C34G C68U
G10C A23G U76C
G10C A62C U76G G88A
G10U C29U C79U
A9U U55A
A9U U22G U55C A62C
G10A G61C G86U
G10C A13G U57A A74C
G10A U63C A74G G86U
G10C A87C
G10C C34U C56U A74C C77G
G10C U57C G86U
G10C U17C U55C C72G G78U
G10U G61A A62U U76C C77U G85U
G10C G15U A33U
G10A G67A C68U
G10U C11U A24C
G10U C29G
G10A U22A C80A C83U G88C
G10U C81U
G10U C81A
G10A G65U C68A C82A
G10U G15U G67C
A9U U21G U35A G65A G66C
G10U A23C C27A U55C U58G C68G G69C
G10A A33C C34U
A9U G61U G69U
G10A A24G G26U A87C
G10C G15A U57C G69A
A9U G32C A33C G59A A62G
A9U G66A C68G
G10A A13U G59U
G10U C29G A60U
G10A G65C G73A
G10A U63A C80U
G10A G85A G86U
G10C U20G U55A U57G C83G
A9U A33U G69C U76C C83U
G10C G15C G32U U63A
G10U C29U A33C C64U G84U G86U
G10U C11G G32A C79A G85A
G10A C77G A87C
G10C G15U
G10A C12A U71G U76A
G10C G26U G86A G88A
A9U A74C
A9U G61A C72A
G10U G15U
G10C C27U C34A
G10U U16G G19C
G10U G59U G69U
G10A G61A G88C
G10A C34G G73U A74C
A9U G28U
G10A G26U G65C
G10U A14C C56A
G10U G61A
A9U C72U
G10A A23C G61A A62C
G10U G28C C56U
G10A G85U
A9U U22G A30C C81G
G10U C68U
G10U C80U
G10A C77U A87C
G10U U21C C75G
A9U U63A G65C G69C
G10C A23C
G10U U22A C75A C77G G85U
A9U G86U
G10A C79G
G10U G32A C34U G65A
G10A A30C C82A
A9U C12U U35A U55A
G10U A13C U21A C83U
A9U U71G G84U
G10A U17A C56G G73U C81A C83G
A9U A62U
A9U A62G
G10U G25C G59A G66C U76G
G10U A62G G73C C83A
G10U G61A A62U U76C C77G G85U
G10C U16G A60C
G10C U21A
G10C U21G
G10A A13G A30U C56A C82A G85A
G10A G18U
G10U C34G U63A C81U
G10U C27A G28U U57C A62U A87G
G10C A30G A31C G65A
A9U C80G
G10A U71C

Nonsense suppression, 0.0446:
A9U C72G
